Experimental data published in article PMC12820563.
The list shows a part of the results. The list includes weakly bound sequences.

Target: T1, MBP-FoxP3dN (UniProt Q99JB6)
T1 sequence: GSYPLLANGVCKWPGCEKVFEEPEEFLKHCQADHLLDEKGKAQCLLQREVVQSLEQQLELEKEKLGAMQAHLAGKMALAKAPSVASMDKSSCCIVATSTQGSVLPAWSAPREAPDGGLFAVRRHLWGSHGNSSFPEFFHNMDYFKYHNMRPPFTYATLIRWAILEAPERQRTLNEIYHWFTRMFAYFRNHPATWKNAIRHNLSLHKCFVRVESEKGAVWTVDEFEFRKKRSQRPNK
Experiment: PD-seq (MBP pull-down with sequencing)
Details: 20 mM Tris-HCl pH 7.5, 100 mM NaCl, 1.5 mM MgCl2, 0.4 uM protein, 0.1 uM dsDNA library, 30 min, room temperature, amylose pull-down; high values mean tight binding; double strand, one strand shown

| Sequence | binding signal (RPM ratio (pull-down/input)) |
| --- | --- |
| GATGATTGTTCTCCCAGCTGATGAATTATCCCCATCGAGTAAACAAATTTTCCTAATCTTTCTGTTCAAGCGCCATCTAC | 0.287 |
| GATGATTGTTCTCCCAGCTGATGAATTATAATAATCGAGTAAACAAATTTTCCTAATCTTTCTGTTCAAGCGCCATCTAC | 0.511 |
| GATGATTGTTCTCCCAGCTGATGAATTCGATCGTTCGAGTAAACAAATTTTCCTAATCTTTCTGTTCAAGCGCCATCTAC | 0.488 |
| GATGATTGTTCTCCCAGCTGATGAATTTCAGGGCTCGAGTAAACAAATTTTCCTAATCTTTCTGTTCAAGCGCCATCTAC | 0.225 |
| GATGATTGTTCTCCCAGCTGATGAATTCGGTAAATCGAGTAAACAAATTTTCCTAATCTTTCTGTTCAAGCGCCATCTAC | 0.35 |
| GATGATTGTTCTCCCAGCTGATGAATTGAGATCATCGAGTAAACAAATTTTCCTAATCTTTCTGTTCAAGCGCCATCTAC | 0.372 |
| GATGATTGTTCTCCCAGCTGATGAATTTGATGCCTCGAGTAAACAAATTTTCCTAATCTTTCTGTTCAAGCGCCATCTAC | 4.09 |
| GATGATTGTTCTCCCAGCTGATGAATTTATCTTGTCGAGTAAACAAATTTTCCTAATCTTTCTGTTCAAGCGCCATCTAC | 0.727 |
| GATGATTGTTCTCCCAGCTGATGAATTTCACTGATCGAGTAAACAAATTTTCCTAATCTTTCTGTTCAAGCGCCATCTAC | 0.284 |
| GATGATTGTTCTCCCAGCTGATGAATTGATGGGGTCGAGTAAACAAATTTTCCTAATCTTTCTGTTCAAGCGCCATCTAC | 0.404 |
| GATGATTGTTCTCCCAGCTGATGAATTTGTTAGATCGAGTAAACAAATTTTCCTAATCTTTCTGTTCAAGCGCCATCTAC | 2.02 |
| GATGATTGTTCTCCCAGCTGATGAATTGATCGTATCGAGTAAACAAATTTTCCTAATCTTTCTGTTCAAGCGCCATCTAC | 0.676 |
| GATGATTGTTCTCCCAGCTGATGAATTCTTGTCTTCGAGTAAACAAATTTTCCTAATCTTTCTGTTCAAGCGCCATCTAC | 0.367 |
| GATGATTGTTCTCCCAGCTGATGAATTCGAATATTCGAGTAAACAAATTTTCCTAATCTTTCTGTTCAAGCGCCATCTAC | 0.521 |
| GATGATTGTTCTCCCAGCTGATGAATTTCCGATTTCGAGTAAACAAATTTTCCTAATCTTTCTGTTCAAGCGCCATCTAC | 0.333 |
| GATGATTGTTCTCCCAGCTGATGAATTGTGAGTTTCGAGTAAACAAATTTTCCTAATCTTTCTGTTCAAGCGCCATCTAC | 2.91 |
| GATGATTGTTCTCCCAGCTGATGAATTCTCCGGATCGAGTAAACAAATTTTCCTAATCTTTCTGTTCAAGCGCCATCTAC | 0.137 |
| GATGATTGTTCTCCCAGCTGATGAATTTCCTTTCTCGAGTAAACAAATTTTCCTAATCTTTCTGTTCAAGCGCCATCTAC | 0.328 |
| GATGATTGTTCTCCCAGCTGATGAATTATCCAGGTCGAGTAAACAAATTTTCCTAATCTTTCTGTTCAAGCGCCATCTAC | 0.164 |
| GATGATTGTTCTCCCAGCTGATGAATTCTCTCGATCGAGTAAACAAATTTTCCTAATCTTTCTGTTCAAGCGCCATCTAC | 0.223 |
| GATGATTGTTCTCCCAGCTGATGAATTCATATCTTCGAGTAAACAAATTTTCCTAATCTTTCTGTTCAAGCGCCATCTAC | 0.762 |

| Sequence | binding signal (RPM ratio (pull-down/input)) |
| --- | --- |
| GATGATTGTTCTCCCAGCTGATGAATTGGCAGAGTCGAGTAAACAAATTTTCCTAATCTTTCTGTTCAAGCGCCATCTAC | 0.212 |
| GATGATTGTTCTCCCAGCTGATGAATTTTTCCCATCGAGTAAACAAATTTTCCTAATCTTTCTGTTCAAGCGCCATCTAC | 0.246 |
| GATGATTGTTCTCCCAGCTGATGAATTTGCAGGATCGAGTAAACAAATTTTCCTAATCTTTCTGTTCAAGCGCCATCTAC | 0.385 |
| GATGATTGTTCTCCCAGCTGATGAATTGTTTGGTTCGAGTAAACAAATTTTCCTAATCTTTCTGTTCAAGCGCCATCTAC | 4.48 |
| GATGATTGTTCTCCCAGCTGATGAATTACCACCGTCGAGTAAACAAATTTTCCTAATCTTTCTGTTCAAGCGCCATCTAC | 0.348 |
| GATGATTGTTCTCCCAGCTGATGAATTAGTAGGGTCGAGTAAACAAATTTTCCTAATCTTTCTGTTCAAGCGCCATCTAC | 1.4 |
| GATGATTGTTCTCCCAGCTGATGAATTCACGGATTCGAGTAAACAAATTTTCCTAATCTTTCTGTTCAAGCGCCATCTAC | 0.229 |
| GATGATTGTTCTCCCAGCTGATGAATTACGAGTGTCGAGTAAACAAATTTTCCTAATCTTTCTGTTCAAGCGCCATCTAC | 1.13 |
| GATGATTGTTCTCCCAGCTGATGAATTTTGCGGATCGAGTAAACAAATTTTCCTAATCTTTCTGTTCAAGCGCCATCTAC | 0.597 |
| GATGATTGTTCTCCCAGCTGATGAATTGACCTCCTCGAGTAAACAAATTTTCCTAATCTTTCTGTTCAAGCGCCATCTAC | 0.31 |
| GATGATTGTTCTCCCAGCTGATGAATTGGACCGCTCGAGTAAACAAATTTTCCTAATCTTTCTGTTCAAGCGCCATCTAC | 0.25 |
| GATGATTGTTCTCCCAGCTGATGAATTAAATCCGTCGAGTAAACAAATTTTCCTAATCTTTCTGTTCAAGCGCCATCTAC | 0.199 |
| GATGATTGTTCTCCCAGCTGATGAATTTCGTGCTTCGAGTAAACAAATTTTCCTAATCTTTCTGTTCAAGCGCCATCTAC | 0.623 |
| GATGATTGTTCTCCCAGCTGATGAATTGGTTTATTCGAGTAAACAAATTTTCCTAATCTTTCTGTTCAAGCGCCATCTAC | 4.04 |
| GATGATTGTTCTCCCAGCTGATGAATTACCCCACTCGAGTAAACAAATTTTCCTAATCTTTCTGTTCAAGCGCCATCTAC | 0.312 |
| GATGATTGTTCTCCCAGCTGATGAATTCCTGTGATCGAGTAAACAAATTTTCCTAATCTTTCTGTTCAAGCGCCATCTAC | 0.431 |
| GATGATTGTTCTCCCAGCTGATGAATTGGCAGACTCGAGTAAACAAATTTTCCTAATCTTTCTGTTCAAGCGCCATCTAC | 0.237 |
| GATGATTGTTCTCCCAGCTGATGAATTCCCGAGGTCGAGTAAACAAATTTTCCTAATCTTTCTGTTCAAGCGCCATCTAC | 0.18 |
| GATGATTGTTCTCCCAGCTGATGAATTCATGTCTTCGAGTAAACAAATTTTCCTAATCTTTCTGTTCAAGCGCCATCTAC | 0.693 |
| GATGATTGTTCTCCCAGCTGATGAATTCCTATCGTCGAGTAAACAAATTTTCCTAATCTTTCTGTTCAAGCGCCATCTAC | 0.382 |
| GATGATTGTTCTCCCAGCTGATGAATTTGCCCATTCGAGTAAACAAATTTTCCTAATCTTTCTGTTCAAGCGCCATCTAC | 0.615 |

| Sequence | binding signal (RPM ratio (pull-down/input)) |
| --- | --- |
| GATGATTGTTCTCCCAGCTGATGAATTGGTTTGGTCGAGTAAACAAATTTTCCTAATCTTTCTGTTCAAGCGCCATCTAC | 3.6 |
| GATGATTGTTCTCCCAGCTGATGAATTTCCCTACTCGAGTAAACAAATTTTCCTAATCTTTCTGTTCAAGCGCCATCTAC | 0.307 |
| GATGATTGTTCTCCCAGCTGATGAATTACGTGCCTCGAGTAAACAAATTTTCCTAATCTTTCTGTTCAAGCGCCATCTAC | 0.855 |
| GATGATTGTTCTCCCAGCTGATGAATTAGTTCTCTCGAGTAAACAAATTTTCCTAATCTTTCTGTTCAAGCGCCATCTAC | 0.491 |
| GATGATTGTTCTCCCAGCTGATGAATTATAGCGATCGAGTAAACAAATTTTCCTAATCTTTCTGTTCAAGCGCCATCTAC | 0.619 |
| GATGATTGTTCTCCCAGCTGATGAATTTCCCCGGTCGAGTAAACAAATTTTCCTAATCTTTCTGTTCAAGCGCCATCTAC | 0.145 |
| GATGATTGTTCTCCCAGCTGATGAATTTCGCCTCTCGAGTAAACAAATTTTCCTAATCTTTCTGTTCAAGCGCCATCTAC | 6.04 |
| GATGATTGTTCTCCCAGCTGATGAATTGTCATACTCGAGTAAACAAATTTTCCTAATCTTTCTGTTCAAGCGCCATCTAC | 0.596 |
| GATGATTGTTCTCCCAGCTGATGAATTAGATCCCTCGAGTAAACAAATTTTCCTAATCTTTCTGTTCAAGCGCCATCTAC | 0.289 |
| GATGATTGTTCTCCCAGCTGATGAATTGATCTGATCGAGTAAACAAATTTTCCTAATCTTTCTGTTCAAGCGCCATCTAC | 0.244 |
| GATGATTGTTCTCCCAGCTGATGAATTAAGGAAGTCGAGTAAACAAATTTTCCTAATCTTTCTGTTCAAGCGCCATCTAC | 0.183 |
| GATGATTGTTCTCCCAGCTGATGAATTGAAGGTCTCGAGTAAACAAATTTTCCTAATCTTTCTGTTCAAGCGCCATCTAC | 0.375 |
| GATGATTGTTCTCCCAGCTGATGAATTTACCGGCTCGAGTAAACAAATTTTCCTAATCTTTCTGTTCAAGCGCCATCTAC | 0.3 |
| GATGATTGTTCTCCCAGCTGATGAATTTCTCAGCTCGAGTAAACAAATTTTCCTAATCTTTCTGTTCAAGCGCCATCTAC | 0.19 |
| GATGATTGTTCTCCCAGCTGATGAATTAGACAAGTCGAGTAAACAAATTTTCCTAATCTTTCTGTTCAAGCGCCATCTAC | 0.371 |
| GATGATTGTTCTCCCAGCTGATGAATTTAAATATTCGAGTAAACAAATTTTCCTAATCTTTCTGTTCAAGCGCCATCTAC | 0.506 |
| GATGATTGTTCTCCCAGCTGATGAATTTTTCTAGTCGAGTAAACAAATTTTCCTAATCTTTCTGTTCAAGCGCCATCTAC | 0.195 |
| GATGATTGTTCTCCCAGCTGATGAATTCATAGGGTCGAGTAAACAAATTTTCCTAATCTTTCTGTTCAAGCGCCATCTAC | 0.337 |
| GATGATTGTTCTCCCAGCTGATGAATTTGACACATCGAGTAAACAAATTTTCCTAATCTTTCTGTTCAAGCGCCATCTAC | 0.802 |
| GATGATTGTTCTCCCAGCTGATGAATTGCCATAGTCGAGTAAACAAATTTTCCTAATCTTTCTGTTCAAGCGCCATCTAC | 0.739 |
| GATGATTGTTCTCCCAGCTGATGAATTGATTACGTCGAGTAAACAAATTTTCCTAATCTTTCTGTTCAAGCGCCATCTAC | 1.32 |
